# Laboratory results: PubChem BioAssay AID624296 (National Center for Advancing Translational Sciences (NCATS), 2012)
# Out of some 350,000 compounds screened, about 9,900 (2.8%) were called active. Inconclusive means that the source gave no clear call. Such entries were picked first, then a sample of the others. Calls follow the shape of the dose curve; as a rule, active = well fitted activation curve with a large enough effect; inconclusive = small, poorly fitted or top-dose-only effect; inactive = no such curve, though single readings can be large or run the other way. Potencies of inconclusive entries are left out as doubtful fits.
# Experiment: A quantitative high throughput screen for small molecules that induce DNA re-replication in MCF 10a normal breast cells. Also: nearly all actives have a fitted effect of over 50% in size. As to activity, positive = re-replication: % of control where 0% means no effect.
# Conditions: MCF 10A DNA re-replication, Hoechst nuclear intensity, 48 h; activity, positive = re-replication: at 46.1 µM (top of the series)
# Potency is read from the fitted curve at half-maximal effect; tags tell the direction and shape of the fitted curve.
SMILES,Potency,"activity, positive = re-replication"
Cc1ccc(-c2cc(C(=O)N3CCC(C)CC3)c3ccccc3n2)cc1,"inconclusive [activator, single point]",–
COC(=O)[C@]1(Cc2ccccc2)N[C@H](c2ccc(SC3CCCCC3)c(OC)c2)[C@@H]2C(=O)N(C)C(=O)[C@@H]21,–,inactive: 20%
COc1ccc(/C=C2\Sc3ccc(C(=O)NCCN4CCCCCC4)cc3N(C)C2=O)cc1,"inconclusive [activator, single point]",–
NS(=O)(=O)c1ccc(CCNCc2ccccc2OCc2ccc(F)cc2)cc1,–,inactive: -1.54%
COc1cccc(NC(=O)c2cccc(S(=O)(=O)N3CCN(Cc4ccccc4)CC3)c2)c1,"inconclusive [activator, full curve, poor fit]",–
CCN(CC)S(=O)(=O)c1ccc2oc(SCC3CN=C(c4ccc(OC)cc4)S3)nc2c1 (stereo not drawn),"inconclusive [activator, partial curve, poor fit]",–
O=C(Oc1c(CN2CCOCC2)cc(Cl)c2cccnc12)c1cccs1,"inconclusive [activator, single point]",–
COc1ccc(-c2cc(C(=O)NC3CCCCC3)no2)cc1OC,"inconclusive [activator, single point]",–
CCc1nnc(NC(=O)CSc2nnc(-c3ccccc3O)n2-c2ccc(C)cc2)s1,"inconclusive [activator, single point]",–
COc1ccc2nc(C)cc(SCC(=O)NNC(=O)COc3cccc4ccccc34)c2c1,"inconclusive [activator, single point]",–
CCCC12CN3CC(C)(CN(C1)C3c1ccc([N+](=O)[O-])o1)C2=O (stereo not drawn),"inconclusive [activator, single point]",–
O=C(CN1c2cccc3cccc(c23)S1(=O)=O)NCCc1ccccc1,–,inactive: 11.3%
O=C(Nc1nc(-c2ccccc2)c(C(=O)c2ccccc2)s1)c1ccc(S(=O)(=O)N2CCCCC2)cc1,"inconclusive [activator, full curve, poor fit]",–
Cc1ccc(C2C(C#N)=C(N)Oc3n[nH]c(-c4ccccc4)c32)o1 (stereo not drawn),"inconclusive [activator, single point]",–
COc1ccc(CCn2c(=N)c(C(=O)NCc3ccco3)cc3c(=O)n4cccc(C)c4nc32)cc1,active: 18.4 µM,–
O=C(Nc1ccc2c(c1)Cc1ccccc1-2)c1ccccc1F,"inconclusive [activator, single point]",–
O=[N+]([O-])c1ccc(Cc2ccccn2)cc1,–,inactive: 0.625%
Cc1ccc(NC(=O)C(c2ccc(Cl)cc2Cl)N2CCCC2)cc1 (stereo not drawn),"inconclusive [activator, single point]",–
COC(=O)c1sc(NC(=O)C(C)C)c(C(=O)OC)c1C,–,inactive: 1.61%
CCOc1c(OC(C)=O)ccc(/C=C/c2ccc3cccc(OC(C)=O)c3n2)c1[N+](=O)[O-],"inconclusive [activator, partial curve, poor fit]",–
O=C(O)c1cccc2c1Cc1cc([N+](=O)[O-])ccc1-2,–,inactive: 1.54%
COc1ccc(N(CC(=O)NCCSCc2ccco2)S(=O)(=O)c2ccccc2)cc1Cl,–,inactive: 22.9%

SMILES,Potency,"activity, positive = re-replication"
Cc1ccc2c(CC(=O)OCC(=O)N(CC(C)C)c3c(N)n(Cc4ccccc4)c(=O)[nH]c3=O)coc2c1,"inconclusive [activator, single point]",–
COc1ccc(OCCN2CCN(C(=O)c3ccc(OC(F)F)c(OC)c3)CC2)cc1,–,inactive: 9.83%
Cc1cc(/C=C2/NC(=O)N(Cc3ccccc3F)C2=O)c(C)n1C(C)C,"inconclusive [activator, partial curve]",–
CC(=O)N1N=C(c2ccc(C(C)(C)C)cc2)OC1(C)C,"inconclusive [activator, partial curve, poor fit]",–
O=c1nc2cccc3c2=c(/c1=C(\O)c1ccccc1)c1ccccc1c3=O,"inconclusive [activator, single point]",–
O=C(c1ccc2nc[nH]c2c1)N1CCc2ccccc2C1,–,inactive: 2.91%
O=C(O)CNC(=O)c1ccc(OC(F)F)cc1,–,inactive: 26.3%
Cc1cccc(OCC(=O)Nc2ccc3oc(=O)ccc3c2)c1C,"inconclusive [activator, single point]",–
Cc1ccc(NC(=O)c2nc(S(=O)(=O)Cc3ccccc3)ncc2Cl)cc1,"inconclusive [activator, single point]",–
FC(F)(F)c1ccc2c(c1)C1C=CCC1C(c1ccncc1)N2 (stereo not drawn),"inconclusive [activator, single point]",–
CCOC(=O)c1c(C)c(C(=O)Nc2cc(F)ccc2F)c(C)n1C,active: 10.3 µM,–
CCN(CC)CCOCCOc1ccc(Cl)c2ccccc12,"inconclusive [activator, partial curve, poor fit]",–
CC(C)c1ccc(C2c3[nH]c4ccccc4c3C[C@H]3C(=O)N(c4ccccc4C(=O)N4CCC[C@@H]4C(=O)O)C(=O)N23)cc1 (stereo partly drawn),"inconclusive [activator, full curve, poor fit]",–
O=S1OC(c2ccccc2)c2cc(Cl)ccc21 (stereo not drawn),–,inactive: -65.4%
COc1ccccc1N1CCN(C(=O)c2ccc([N+](=O)[O-])s2)CC1,–,inactive: -4.55%
COC(=O)C(Cc1ccc(O)cc1)NC(=O)c1ccc2c(c1)OCCO2 (stereo not drawn),–,inactive: 0.124%
O=C(Cc1cccc(C(F)(F)F)c1)NCC(=O)Nc1cc(Cl)ccc1Cl,"inconclusive [activator, single point]",–
COc1cc(/C=C(\CC(=O)O)c2nc3ccccc3s2)ccc1OCC(=O)Nc1ccccc1F,"inconclusive [activator, single point]",–
CCNc1ccccc(C(=O)/C=C/c2ccc3c(c2)OCO3)c1=O,"inconclusive [activator, single point]",–
CCCNC(=O)c1ccc(N2CCC3(CC2)CC(c2cccc(Br)c2)=NO3)c([N+](=O)[O-])c1,–,inactive: -2.8%
COc1ccc(-c2nn(-c3ccccc3)cc2/C=N/NC(N)=S)cc1OC,active: 1.64 µM,–
